From PubChem BioAssay AID540317 (National Center for Advancing Translational Sciences (NCATS), 2011)
Out of some 390,000 compounds screened, about 2,200 (0.56%) were called active. Inconclusive results, whose numbers are uncertain, are shown with a selection of clear calls. Calls come from the whole dose curve; as a rule, active = well fitted inhibition curve with a large enough effect; inconclusive = small, poorly fitted or top-dose-only effect; inactive = no such curve, though single readings can be large or run the other way. Where the call is inconclusive, the potency comes from a doubtful curve fit.

biological target: Chromobox protein homolog 1 (Homo sapiens) (UniProt P83916); experiment: HTS for Inhibitors of HP1-beta Chromodomain Interactions with Methylated Histone Tails; details: AlphaScreen HP1-beta / biotin-H3K9me3 peptide binding; series mostly up to 114 µM; activity change, negative = inhibition: at the top concentration; note: nearly all actives have a fitted effect of over 70% in size
Sequence of UniProt P83916 (P83916 whole entry, looked up): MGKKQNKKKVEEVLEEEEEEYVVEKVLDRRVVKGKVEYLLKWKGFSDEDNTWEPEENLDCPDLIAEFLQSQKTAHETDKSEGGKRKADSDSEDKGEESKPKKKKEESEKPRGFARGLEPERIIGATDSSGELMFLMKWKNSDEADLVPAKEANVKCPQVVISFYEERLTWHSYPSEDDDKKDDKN
How it was run: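 HP1-beta protein (50 nM final) preincubated 30 min at room temperature with biotinylated H3(1-18)K9me3 peptide (50 nM) in PBS pH 7.4, 0.01% Tween-20, then compound added for 30 min. AlphaScreen streptavidin donor/nickel chelate acceptor beads (10 ug/mL final), 30 min dark, luminescence read.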
Potency is the fitted concentration of half-maximal effect; tags give direction and shape of the fitted curve.

Structure (SMILES)	activity change, negative = inhibition	Potency
COc1ccc2[nH]c(=O)c(CN(Cc3nnnn3Cc3ccc(F)cc3)CC3CCCO3)cc2c1 (stereo not given)	inactive: 34.7%	–
CN(C(=O)c1ccc(NC(=O)Cc2ccc(NC(=O)C3CCCN(C(=O)C4CCCC4)C3)cc2)cc1)C1CC1 (stereo not given)	inactive: 25.8%	–
O=C(NC(=S)Nc1ccc(Cc2ccncc2)cc1)c1ccccc1	–	inconclusive: 20 µM [inhibitor, partial curve, poor fit]
COc1ccc(OC)c(NC(=O)CSc2nnc(Cc3cccn3C)n2CCc2ccccc2)c1	–	inconclusive: 28.2 µM [inhibitor, partial curve, poor fit]
CCOc1ccc2nc(N3CCCC(C(=O)NCCc4ccc(OC)cc4OC)C3)sc2c1 (stereo not given)	inactive: 44%	–
Nc1cc(N)cc(C(=O)OCC(=O)Nc2cc(S(=O)(=O)N3CCCCC3)ccc2Cl)c1	–	active: 50.1 µM
COc1ccc2cc(C(c3nnnn3CCc3ccccc3)N3CCC(O)CC3)c(=O)[nH]c2c1 (stereo not given)	inactive: 22%	–
O=C(Cn1cnc2scc(-c3cccc([N+](=O)[O-])c3)c2c1=O)NCc1ccco1	–	inconclusive: 39.8 µM [inhibitor, partial curve]
CCc1nc(N2CCN(Cc3ccc4c(c3)OCO4)CC2)c2oc3ccccc3c2n1	–	inconclusive: 35.5 µM [inhibitor, single point]
c1cc2c(cc1-c1csc(NNC3=NCCCCC3)n1)OCCO2	–	inconclusive: 50.1 µM [inhibitor, partial curve]
COc1ccccc1-c1sc2ccccc2c1-c1ccc(OCCN2CCCCC2)cc1	–	inconclusive: 35.5 µM [inhibitor, partial curve, poor fit]
Cc1cc(C)cc(NC(=S)NCc2ccc3[nH]c4c(c3c2)CCCC4)c1	–	inconclusive: 31.6 µM [inhibitor, partial curve]
O=C1OC(c2ccc3ccccc3c2O)(c2ccc3ccccc3c2O)c2ccccc21	–	inconclusive: 22.4 µM [inhibitor, single point]
CCOC(=O)c1nnc2c(-c3ccc(Cl)cc3)c(C)nn2c1N	inactive: 35.1%	–
COc1ccc(C(=O)c2c(C(F)(F)F)oc3c2C(=O)c2ccccc2C3=O)cc1	–	inconclusive: 17.8 µM [inhibitor, partial curve, poor fit]
Fc1ccc2[nH]c3c(N4CCc5ccccc5C4)ncnc3c2c1	inactive: 17.3%	–
CC(C)(C)c1ccc(O)c(O)c1	–	inconclusive: 20 µM [inhibitor, full curve]
FC(F)(F)C1CCCN(c2nsc3ccccc23)C1 (stereo not given)	–	active: 3.16 µM
O=C1SC(SCc2ccccc2)=N/C1=C\c1ccco1	–	inconclusive: 25.1 µM [inhibitor, partial curve]
O=C(O)c1cccc(-c2ccc(/C=c3/sc4nc5ccccc5n4c3=O)o2)c1	–	inconclusive: 17.8 µM [inhibitor, full curve]
C#CCSc1nsc(SCC#C)c1C#N	–	inconclusive: 70.8 µM [inhibitor, partial curve]
COc1ccc(NC(=O)C2CCN(S(=O)(=O)c3cccc4nonc34)CC2)cc1OC	inactive: -7.17%	–
COCCCNC(=S)NNC(=S)Nc1ccc(OC)cc1	–	inconclusive: 7.94 µM [inhibitor, partial curve, poor fit]
COc1ccc(NCC(=O)Nc2ccc(Br)cc2F)c(OC)c1	–	inconclusive: 44.7 µM [inhibitor, partial curve, poor fit]

Structure (SMILES)	activity change, negative = inhibition	Potency
Cc1ccc2cccc(NC(=O)COc3ccccc3[N+](=O)[O-])c2n1	inactive: 36.3%	–
CCC(C)c1ccccc1NC(=S)NC(=O)c1ccco1 (stereo not given)	inactive: 11.1%	–
c1ccc(COc2ccc(OCCCCN3CCCCC3)cc2)cc1	inactive: -37.9%	–
CC1CC(OCC(O)C[N+]2(C)CCOCC2)CC(C)(C)C1 (stereo not given)	–	inconclusive: 89.1 µM [inhibitor, single point]
CCN(CC)c1ccc(NC(=O)c2ccccc2F)cc1S(=O)(=O)Nc1ccccc1OC	–	inconclusive: 2.82 µM [inhibitor, partial curve, poor fit]
c1cc2c3c(cccc3c1)NC1(CCC3(CC1)Nc1cccc4cccc(c14)N3)N2	–	inconclusive: 31.6 µM [inhibitor, full curve]
CCCCN1C(=O)Cc2c1nc(N)c1c(N)nc(N(CCC)CCC)c(C#N)c21	–	inconclusive: 8.91 µM [inhibitor, partial curve, poor fit]
S=c1nc(-c2ccco2)[nH][nH]1	–	inconclusive: 89.1 µM [inhibitor, single point]
Fc1ccc(CN2CCN(C(c3ccccc3)c3ccccc3)CC2)cc1	–	inconclusive: 15.8 µM [inhibitor, full curve]
C[C@@](Cc1ccc(O)c(O)c1)(NN)C(=O)O	–	inconclusive: 70.8 µM [inhibitor, partial curve]
Cc1ccc(OC(=O)c2cccc([N+](=O)[O-])c2)c(-n2nc3ccccc3n2)c1	inactive: 17.3%	–
CC(C)(C)OC(=O)N1CCC(c2c(C(=O)NCc3ccccn3)cnn2-c2ccccc2)CC1	inactive: 33.7%	–
CC(Sc1nnc(-c2ccc(Cl)cc2Cl)n1Cc1ccccc1)C(=O)Nc1nccs1 (stereo not given)	–	inconclusive: 28.2 µM [inhibitor, partial curve]
Cc1ccc(NC(=S)NCc2ccc3c(c2)OCO3)cc1	inactive: -9%	–
COC(=O)c1ccc(OCC(O)Cn2cnc3cc(C)c(C)cc32)cc1 (stereo not given)	inactive: 10.8%	–
COc1ccc(N2CCN(C(=O)c3cn(C4CCCC4)c(=O)c4c3c3ccccc3n4C)CC2)cc1	–	inconclusive: 20 µM [inhibitor, full curve]
COc1ccc2c(c1)-c1c(ssc1=S)C(C)(C)N2S(=O)(=O)c1ccc(C)cc1	–	inconclusive: 12.6 µM [inhibitor, full curve]
O=C(C1CCCN(Cc2ccccc2C(F)(F)F)C1)N1CCCCC1 (stereo not given)	–	inconclusive: 28.2 µM [inhibitor, partial curve]
OCCC1CN(Cc2ccon2)CCN1CCc1ccccc1 (stereo not given)	inactive: 39.7%	–
COc1ccc(C2CC(c3ccc4ccccc4c3)=NN2C(=O)CNC2CCCCC2)cc1 (stereo not given)	–	inconclusive: 14.1 µM [inhibitor, full curve]
FC(F)(F)c1ccccc1/C=N/n1c(COc2ccccc2)n[nH]c1=S	–	inconclusive: 35.5 µM [inhibitor, partial curve, poor fit]
CCSc1ccccc1C(=O)NCc1ccc2c(c1)OCO2	inactive: 29.2%	–
CCN(CC)c1ccc(NC(=O)COc2ccccc2C#N)cc1S(=O)(=O)Nc1ccccc1OC	–	inconclusive: 8.91 µM [inhibitor, full curve]
CC1=NN(c2cc(Cl)c(S(=O)(=O)O)cc2Cl)C(=O)C1	inactive: 14.3% [at 57 µM]	–

Structure (SMILES)	activity change, negative = inhibition	Potency
COc1ccc(-n2nc([N+](=O)[O-])c(=NCCC3=CCCCC3)n2O)cc1	–	active: 44.7 µM
O=c1nc(N/N=C/c2ccccn2)cn[nH]1	inactive: 58.7%	–
FC(F)(F)c1ccccc1NC(=S)N/N=C1\CC2CC=CC12 (stereo not given)	–	inconclusive: 15.8 µM [inhibitor, partial curve, poor fit]
O=[N+]([O-])c1nn(-c2ccccc2)[n+]([O-])c1N1CCN(c2ccccc2F)CC1	–	inconclusive: 44.7 µM [inhibitor, partial curve]
CN(C)CCCN(C(=O)c1ccc2c(c1)CCCC2)c1nc2c(F)cccc2s1	–	inconclusive: 50.1 µM [inhibitor, partial curve]
CC(C)c1nc2ccccc2c2nnc(SCC(=O)NCc3ccco3)n12	inactive: -19.1%	–
C(=Nc1ccc(Nc2ccccc2)cc1)c1ccc2ccccc2c1	–	inconclusive: 44.7 µM [inhibitor, partial curve]
Cc1ccc(N=c2c([N+](=O)[O-])nn(-c3ccc(Cl)cc3)n2O)cc1C	–	inconclusive: 50.1 µM [inhibitor, partial curve, poor fit]
COc1cccc2c1C(=O)c1c(O)c3c(c(O)c1C2=O)C[C@@](O)(C(=O)CO)C[C@@H]3OC1CC(N)C(O)C(C)O1 (stereo not given in full)	–	inconclusive: 79.4 µM [inhibitor, partial curve]
O=C(O)C(c1ccccc1)N1C(=O)/C(=C\c2ccc(-c3ccc(Br)cc3)o2)SC1=S (stereo not given)	–	inconclusive: 28.2 µM [inhibitor, partial curve]
COc1ccc(N2CCN(C(=O)C(Cc3ccccc3)n3cccc3)CC2)cc1 (stereo not given)	–	inconclusive: 44.7 µM [inhibitor, partial curve]
Cc1ccc(CCNC(=O)C2CCCN(C(=O)c3cc4sccc4n3C)C2)cc1 (stereo not given)	inactive: -8.41%	–
CCOC(=O)[C@@H]1[C@H]2COc3ccc(Br)cc3[C@H]2N2C(=O)N(c3ccc(Br)cc3)C(=O)[C@]12C	inactive: 8.54%	–
COc1ccc(Nc2ncc(C(=O)N3CCN(Cc4ccccc4)CC3)c3ccccc23)cc1	inactive: -10.1%	–
CCN(CC)c1ccc(NC(=O)c2ccccc2Br)cc1S(=O)(=O)Nc1ccccc1OC	–	active: 6.31 µM
CCCCCn1cnc2c(=S)nc(N)[nH]c21	–	inconclusive: 50.1 µM [inhibitor, partial curve]
CCOC(=O)c1cc(-c2ccccc2)sc1NC(=O)c1ccc(OC)c(OC)c1	–	inconclusive: 14.1 µM [inhibitor, full curve]
CCNC(=S)N/N=C/c1cn(Cc2ccccc2F)c2ccccc12	–	inconclusive: 20 µM [inhibitor, partial curve]
COc1ccc(/C=C/C(=O)Nc2nc(C)cc(C)n2)cc1OC	–	inconclusive: 39.8 µM [inhibitor, single point]
COc1cc(/C=C2\SC(c3ccc(C)cc3)=NC2=O)ccc1O	–	inconclusive: 70.8 µM [inhibitor, single point]
Cc1nc(CC(=O)Nc2cccc(C)c2C)cs1	inactive: 26.4%	–
CC(=O)c1cccc(S(=O)(=O)NCCc2csc3nc(-c4ccc(F)cc4)nn23)c1	inactive: -8.6%	–
